For this test, the target named is T1, Smc3 S72C (S. cerevisiae) (UniProt P47037).
T1 sequence: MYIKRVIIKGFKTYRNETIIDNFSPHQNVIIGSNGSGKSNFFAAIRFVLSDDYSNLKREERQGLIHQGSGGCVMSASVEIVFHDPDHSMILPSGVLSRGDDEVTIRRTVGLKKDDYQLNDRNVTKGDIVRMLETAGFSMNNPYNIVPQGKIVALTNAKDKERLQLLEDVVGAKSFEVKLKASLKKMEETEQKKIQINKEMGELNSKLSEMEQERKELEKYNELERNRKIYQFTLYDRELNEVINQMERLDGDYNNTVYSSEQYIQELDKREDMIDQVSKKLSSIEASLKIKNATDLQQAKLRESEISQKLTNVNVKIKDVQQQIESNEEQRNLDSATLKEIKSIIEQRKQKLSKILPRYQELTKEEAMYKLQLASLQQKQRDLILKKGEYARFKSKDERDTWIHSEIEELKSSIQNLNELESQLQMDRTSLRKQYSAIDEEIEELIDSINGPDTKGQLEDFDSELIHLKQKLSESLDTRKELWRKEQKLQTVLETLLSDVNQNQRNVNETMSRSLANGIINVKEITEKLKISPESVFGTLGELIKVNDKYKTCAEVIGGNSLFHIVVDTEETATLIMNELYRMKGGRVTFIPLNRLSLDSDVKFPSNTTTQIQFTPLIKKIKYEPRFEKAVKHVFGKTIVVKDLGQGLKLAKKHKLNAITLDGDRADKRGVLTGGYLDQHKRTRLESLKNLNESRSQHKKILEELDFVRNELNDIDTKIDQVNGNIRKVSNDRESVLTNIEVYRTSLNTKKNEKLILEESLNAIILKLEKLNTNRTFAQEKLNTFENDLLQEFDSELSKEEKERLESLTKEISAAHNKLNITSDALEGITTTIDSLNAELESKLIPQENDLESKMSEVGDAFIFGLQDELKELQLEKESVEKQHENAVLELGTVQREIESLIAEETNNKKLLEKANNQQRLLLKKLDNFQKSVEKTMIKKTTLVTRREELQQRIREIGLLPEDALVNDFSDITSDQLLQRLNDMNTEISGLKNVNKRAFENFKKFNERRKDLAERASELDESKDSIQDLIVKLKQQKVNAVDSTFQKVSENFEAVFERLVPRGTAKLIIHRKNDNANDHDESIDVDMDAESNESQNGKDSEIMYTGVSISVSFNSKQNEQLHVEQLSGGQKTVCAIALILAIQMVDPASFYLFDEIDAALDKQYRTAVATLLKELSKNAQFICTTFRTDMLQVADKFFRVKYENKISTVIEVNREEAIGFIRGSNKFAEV
The experiment in a line: cross-linking; in vivo BMOE cross-link of cysteine pairs in exponentially grown yeast cells (on ice, 6 min); Scc1-PK immunoprecipitated, western blot.

Results are given in words; binding and its absence hold for the method and conditions named. In cells and extracts the contact can be indirect. Some binding calls cover weakened binding; strength is not graded here.

B1: Scc2 E819C (natural protein, S. cerevisiae, UniProt Q04002 1-1493, looked up)
chain: MSYPGKDKNIPGRIIEALEDLPLSYLVPKDGLAALVNAPMRVSLPFDKTIFTSADDGRDVNINVLGTANSTTSSIKNEAEKERLVFKRPSNFTSSANSVDYVPTNFLEGLSPLAQSVLSTHKGLNDSINIEKKSEIVSRPEAKHKLESVTSNAGNLSFNDNSSNKKTKTSTGVTMTQANLAEQYLNDLKNILDIVGFDQNSAEIGNIEYWLQLPNKKFVLTTNCLTKLQMTIKNITDNPQLSNSIEITWLLRLLDVMVCNIKFSKSSLKMGLDDSMLRYIALLSTIVLFNIFLLGKNDSNLHRESYIMEPVNFLSDLIESLKILTIEYGSLKIEFDTFQEALELLPKYIRNGPFLDDNVTAKLVYIFSDLLMNNDIEATTNIQFQSFWDNVKRISSDILVSLFGSFDQQRGFIIEELLSHIEKLPTKRIQKKLRKVGNQNIYITDFTFTLMSMLENINCYSFCNQMKDIAPENIDLLKNEYKKQEEFLFNIVEHINDTILERFFKNPSALRYVIDNFVQDLLLLISSPQWPVTEKILSSLLKRLLSVYSPSMQVSANIETICLQLIGNIGSTIFDIKCSTRDHEDNNLIKMINYPETLPHFFKSFEECIAYNETIKCRRSATRFLWNLRLGTILILEEYTKDAKEQIITVDNELKKILEQIKDGGLGPELENREADFSTIKLDYFSILHAFELLNLYDPYLKLILSLLAKDKIKLRSTAIKCLSMLASKDKVILSNPMVKETIHRRLNDSSASVKDAILDLVSINSSYFEFYQQINNNYNDDSIMVRKHVLRINEKMYDETNDIVTKVYVIARILMKICDEEDNIIDMARLILLNRWILKVHEVLDQPEKLKEISSSVLLVMSRVAIMNEKCSQLFDLFLNFYLLNKEAHSKEAYDKITHVLTILTDFLVQKIVELNSDDTNEKNSIVDKQNFLNLLAKFADSTVSFLTKDHITALYPYMVSDEKSDFHYYILQVFRCTFEKLANFKQKFLYDLETTLLSRLPKMNVREIDEAMPLIWSVATHRHDTARVAKACSSCLSHLHPYINKANNEEAAIVVDGKLQRLIYLSTGFARFCFPKPSNDKIAFLQEGETLYEHITKCLLVLSKDKITHVIRRVAVKNLTKLCGNHPKLFNSRHVLHLLDKEFQSDQLDIKLVILESLYDLFLLEERKSVRNTGVNSTLSSNSILKKKLLKTNRVEFANDGVCSALATRFLDNILQLCLLRDLKNSLVAIRLLKLILKFGYTNPSHSIPTVIALFASTSQYIRHVAYELLEDLFEKYETLVFSSLSRGVTKAIHYSIHTDEKYYYKHDHFLSLLEKLCGTGKKNGPKFFKVLKRIMQSYLDDITDLTSTNSSVQKSIFVLCTNISNITFVSQYDLVSLLKTIDLTTDRLKEVIMDEIGDNVSSLSVSEEKLSGIILIQLSLQDLGTYLLHLYGLRDDVLLLDIVEESELKNKQLPAKKPDISKFSAQLENIEQYSSNGKLLTYFRKHVKDT
notes: Scc2, S. cerevisiae; source: S. cerevisiae W303, in vivo, whole-cell extract
With B1, the binding result is recorded as “binds”.

The values are drawn from PMC10516938, “Conformational dynamics of cohesin/Scc2 loading complex are regulated by Smc3 acetylation and ATP binding” (Nature Communications, 2023).
